In PubChem BioAssay (Tox21):
“And” between values parts separate entries of the source, which are not always exact repeats. Equal entries are not always repeated. The shares of active, inactive and inconclusive entries below differ from those in the screen. Entries that show only a call come without a potency. A potency beside an inconclusive call is a rough fit, not a confirmed value. The source made the active and inactive calls. The call rests on the fitted dose curve; in most records, active means well fitted curve in the direction sought with a large enough effect in the repeat runs; inconclusive means weak or mixed curves; inactive means no such curve, though single readings can be large; an effect the other way counts as inactive or inconclusive.

System: not listed separately
Assay: qHTS RealTime-Glo MT Cell Viability Assay in HEK293 cells - 8 hour (AID 1224887); further: nearly all actives have a fitted effect of over 50% in size
Settings: RealTime-Glo luminescence; series mostly up to 76.8 µM
In short: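 Luminescence readout at each listed time point; HEK293, 600 cells/well, RealTime-Glo MT reagent added with cells; compounds pinned (23 nL in DMSO) after 5 h at 37 C; continuous culture at 37 C.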
Potency means the concentration at half of the fitted maximal effect; tags describe the fitted curve by direction and shape.

Row | Structure (SMILES) | Potency
1 | COC(=O)N(OC)c1ccccc1COc1ccn(-c2ccc(Cl)cc2)n1 | inconclusive: 2.75 µM [rising, partial curve]
2 | CNC(=O)Oc1ccc(N(C)C)c(C)c1 | inactive
3 | CO/N=C(/C(=O)OC)c1ccccc1COc1ccccc1C | inconclusive: 21.9 µM [rising, partial curve]
4 | CCc1ccc(C(=O)NN(C(=O)c2cc(C)cc(C)c2)C(C)(C)C)cc1 | inactive
5 | COC(=O)c1c(C(F)F)nc(C(F)(F)F)c(C2=NCCS2)c1CC(C)C | inactive
6 | O=C1C(Cl)C(CCl)CN1c1cccc(C(F)(F)F)c1 (stereo unspecified) | active: 24.5 µM
7 | O=[N+]([O-])c1ccc(CCl)cc1 | inactive
8 | CC(C)NC(C)C | inactive
9 | O=C1CCCO1 | inactive
10 | ClC(Cl)(Cl)C(Cl)(Cl)Cl | inactive
11 | C=CC(=O)OC | inactive
12 | CCCN(CCC)c1c([N+](=O)[O-])cc(S(C)(=O)=O)cc1[N+](=O)[O-] | active: 13.8 µM
13 | CCCCOC(=O)c1ccccc1C(=O)OCCCC | inactive
14 | N#CCNCC#N | inactive
15 | CCOP(=S)(OCC)SCn1c(=O)oc2cc(Cl)ccc21 | active: 26.3 µM and active: 15.5 µM
16 | Nc1cccc2ccccc12 | inconclusive: 15.5 µM [cytotoxic, full curve]
17 | CNC(=O)Oc1cccc2ccccc12 | inconclusive: 24.5 µM [cytotoxic, partial curve]
18 | Cc1ccc(C)c2ccccc12 | inconclusive: 61.6 µM [cytotoxic, partial curve, poor fit]
19 | O=Cc1ccc(Cl)cc1Cl | inactive
20 | Oc1c(I)cc(I)cc1I | inactive

System: not listed separately
Assay: A CellTox Green Cytotoxicity Assay to monitor cytotoxicity in HEK293 cells - 16 hour (AID 1224888); further: nearly all actives have a fitted effect of over 35% in size
Settings: CellTox Green fluorescence; series mostly up to 76.8 µM
In short: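 Read-out: fluorescence of a cell-impermeant cyanine dye staining DNA of dead cells, proportional to cytotoxicity. HEK293, 600 cells/well with reagent, compound (23 nL DMSO) added after 5 h; reads at 0, 8, 16, 24, 32, 40 h.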

Row | Structure (SMILES) | Potency
21 | CCCCCOC(=O)c1ccccc1C(=O)OCCCCC | inactive
22 | Nn1cnnc1 | inactive
23 | O=[N+]([O-])O | inactive
24 | Cc1cc(Cl)ccc1OCC(=O)O | inactive
25 | CCCCCCCCCCCCCN1CC(C)OC(C)C1 (stereo unspecified) | inactive
26 | O=C1OC(=O)C2C1C1(Cl)C(Cl)=C(Cl)C2(Cl)C1(Cl)Cl (stereo unspecified) | inactive
27 | C[C@H]1O[C@H](OC2[C@@H](O)[C@@H](O)C(O)[C@H](O)[C@H]2O)[C@@H](N)C[C@@H]1N=C(N)C(=O)O (stereo partly specified) | inactive
28 | O=C(O)C(Cl)(Cl)Cl | inactive
29 | CCC(Cl)CCl (stereo unspecified) | inconclusive: 0.785 µM [activator, single point]
30 | CCCCOC(=O)c1ccccc1C(=O)OCCCC | inactive
31 | COC1CC(=C(c2cccs2)c2cccs2)C[N+](C)(C)C1 (stereo unspecified) | inactive
32 | C=C1CC[C@@]2(O)[C@H]3Cc4ccc(O)c5c4[C@@]2(CCN3CC2CC2)[C@H]1O5 | inconclusive: 10.7 µM [activator, single point]
33 | Cc1ccc(C)c2ccccc12 | inconclusive: 43.6 µM [activator, partial curve, poor fit]
34 | CCN | inactive
35 | CC(C)C(Br)C(=O)NC(N)=O (stereo unspecified) | inactive

System: not listed separately
Assay: qHTS RealTime-Glo MT Cell Viability Assay in HepG2 cells - 0 hour (AID 1224889); further: nearly all actives have a fitted effect of over 50% in size
Settings: RealTime-Glo luminescence; series mostly up to 76.8 µM
In short: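 HepG2 suspension premixed with RealTime-Glo reagents is plated at 600 cells per well and left 5 h at 37 C/5% CO2. Compounds in DMSO then go in, and bioluminescence reflecting viable cell number is recorded over 40 h.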

Row | Structure (SMILES) | Potency
36 | Cn1cc(-c2ccccc2)c(=O)c(-c2cccc(C(F)(F)F)c2)c1 | inconclusive: 38 µM [cytotoxic, partial curve, poor fit] and inconclusive: 54.9 µM [cytotoxic, partial curve, poor fit]
37 | COP(=S)(OC)Oc1cc(Cl)c(Br)cc1Cl | inconclusive: 54.9 µM [cytotoxic, partial curve, poor fit]
38 | CS(=O)(=O)c1cc(C(F)(F)F)ccc1C(=O)c1cnoc1C1CC1 | inconclusive: 43.6 µM [cytotoxic, partial curve]
39 | Clc1ccccc1N1CCNCC1 | inactive

System: not listed separately
Assay: qHTS assay to identify small molecule antagonists of the androgen receptor (AR) signaling pathway using the MDA cell line in the presence of 0.5 nM R1881 - cell viability counter screen (AID 1259242); further: nearly all actives have a fitted effect of over 45% in size
Settings: MDA-kb2 viability, CellTiter-Fluor protease fluorescence, 16 h; series mostly up to 92.4 µM
In short: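 Live-cell protease fluorescence, CellTiter-Fluor, 30 min at 37C. Cells: MDA-kb2, 3,000/well, preincubated 5 hr. Compounds plus 0.5 nM R1881 final, 16 hr, 37C, 0% CO2.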

Row | Structure (SMILES) | Potency
40 | COC(=O)N(OC)c1ccccc1COc1ccn(-c2ccc(Cl)cc2)n1 | active: 2.17 µM
41 | CO/N=C(/C(=O)OC)c1ccccc1COc1ccccc1C | inconclusive: 61.1 µM [cytotoxic]
42 | Cc1cc(Cl)ccc1OCC(=O)O | inactive

Target: Estrogen receptor (Homo sapiens) (UniProt P03372)
Assay: qHTS assay to identify small molecule antagonists of the estrogen receptor alpha (ER-alpha) signaling pathway using the BG1 cell line in the presence of 0.1 nM 17-beta-estradiol (AID 1259244); further: nearly all actives have a fitted effect of over 50% in size
Settings: VM7Luc4E2 (BG1) ERE-luciferase, antagonist mode, 0.1 nM E2, 22 h; series mostly up to 92.4 µM
In short: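 Luminescence after ONE-Glo (30 min, room temperature) measured ERE-luciferase activity in VM7Luc4E2 cells treated 22 h with compound and 0.1 nM final 17beta-estradiol as stimulator.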

Chain of UniProt P03372 (P03372 whole entry, looked up): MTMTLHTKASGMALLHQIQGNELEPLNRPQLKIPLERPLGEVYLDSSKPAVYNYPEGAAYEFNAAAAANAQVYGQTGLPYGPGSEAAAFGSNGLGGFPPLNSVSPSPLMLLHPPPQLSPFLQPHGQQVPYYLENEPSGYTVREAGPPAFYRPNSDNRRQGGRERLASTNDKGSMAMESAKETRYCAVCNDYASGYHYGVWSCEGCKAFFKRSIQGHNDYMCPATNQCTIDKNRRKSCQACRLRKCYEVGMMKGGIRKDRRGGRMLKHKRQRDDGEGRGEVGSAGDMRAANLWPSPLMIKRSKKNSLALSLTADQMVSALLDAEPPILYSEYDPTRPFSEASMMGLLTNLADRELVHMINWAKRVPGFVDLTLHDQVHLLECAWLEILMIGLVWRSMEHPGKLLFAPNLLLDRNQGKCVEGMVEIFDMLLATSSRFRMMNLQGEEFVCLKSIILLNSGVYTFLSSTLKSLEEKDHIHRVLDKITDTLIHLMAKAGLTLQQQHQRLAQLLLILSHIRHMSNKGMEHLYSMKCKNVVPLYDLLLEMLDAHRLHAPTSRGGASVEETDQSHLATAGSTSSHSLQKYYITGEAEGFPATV

Row | Structure (SMILES) | Potency
43 | CCc1ccc(C(=O)NN(C(=O)c2cc(C)cc(C)c2)C(C)(C)C)cc1 | inconclusive: 54.5 µM [inhibitor, partial curve, poor fit]
44 | COC(=O)c1c(C(F)F)nc(C(F)(F)F)c(C2=NCCS2)c1CC(C)C | inactive
45 | Nc1cccc2ccccc12 | inconclusive: 27.5 µM [inhibitor, partial curve, poor fit] and inconclusive: 61.1 µM [inhibitor, single point]
46 | Oc1c(I)cc(I)cc1I | inconclusive: 61.1 µM [inhibitor]
